Among all 360,000 compounds or so, about 2,600 (0.72%) were called active. Inconclusive means that the source gave no clear call. Such entries were picked first, then a sample of the others. Calls come from the whole dose curve; as a rule, active = well fitted inhibition curve with a large enough effect; inconclusive = small, poorly fitted or top-dose-only effect; inactive = no such curve, though single readings can be large or run the other way. Potencies of inconclusive entries are doubtful fits and often do not repeat.
Test: Primary qHTS for Inhibitors of ATXN expression; note: nearly all actives have a fitted effect of over 55% in size
Conditions: HEK-293 ATXN2-luciferase reporter, luminescence, 24 h; series mostly up to 57 µM
Summary of the method: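 ATXN2-luciferase reporter cells (luciferase flanked by upstream and downstream ATXN2 gene portions) were treated 24 h at 37 °C with compounds at up to 57 uM. SteadyGlo luminescence gave expression; GF-AFC fluorescence gave viability.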
Potency is the fitted concentration of half-maximal effect; tags give direction and shape of the fitted curve.

SMILES	Potency
CCc1cccc(OCC2Cn3c(nc4c3c(=O)n(C)c(=O)n4C)O2)c1 (stereo not given)	inconclusive: 8.91 µM [inhibitor, partial curve, poor fit]
CCc1oc2ccccc2c1C(=O)c1cc(I)c(O)c(I)c1	inactive
CN(C)S(=O)(=O)Oc1ccsc1C(=O)Nc1cccc(Cl)c1	inconclusive: 28.2 µM [inhibitor, partial curve, poor fit]
COCCN1C(=O)COc2ccccc2C1C(=O)Nc1c(C)cccc1C (stereo not given)	inactive
Cc1cccc2sc(N(CCCN(C)C)C(=O)c3ccc(C(=O)c4ccccc4)cc3)nc12	inconclusive: 31.6 µM [inhibitor, single point]
CCCOc1ccc(C(=O)NNC(=S)NC(=O)c2cccs2)cc1	inconclusive: 10 µM [inhibitor, partial curve]
NS(=O)(=O)c1ccc(CCNc2ccn3nc(-c4cccc(C(F)(F)F)c4)cc3n2)cc1	inconclusive: 39.8 µM [inhibitor, single point]
Cc1ccc(C(C(=O)NC2CCCCC2)N(Cc2ccccc2)C(=O)Cc2c[nH]c3ccccc23)o1 (stereo not given)	inconclusive: 39.8 µM [inhibitor, single point]
CCOC(=O)c1c(C)c(-c2ccccc2)n(CC(=O)NC2CCCCCC2)c1C	inactive
Cc1cccn2c(=O)c3cc(C(=O)NC4CCCC4)c(=N)n(CCc4ccccc4)c3nc12	inactive
COc1ccc(N2C(=O)Cc3ccccc3C2=O)cc1	inactive
C[C@H](CO)N1C[C@H](C)[C@H](CN(C)C(=O)Cc2ccccc2)OCc2cnnn2CCCC1=O	inactive
Cc1nc(-c2ccccn2)nc(N(C)c2ccccc2)c1Cl	inconclusive: 3.55 µM [inhibitor, full curve, poor fit]
Clc1cccc(-c2nc(-c3ccccn3)no2)c1	active: 12.6 µM
O=C(CCC1CCCCC1)NCCN1C2=NC[C@@H](Cc3ccccc3)N2C[C@H]1Cc1ccc(O)cc1	inconclusive: 31.6 µM [inhibitor, partial curve]
CCCCNC(=S)NCc1ccc2c(c1)cc(C)n2C	inconclusive: 10.6 µM [inhibitor, partial curve, poor fit]
CCC1CCCCN1C(=O)CSc1nc2c([nH]c3ccccc32)c(=O)n1C (stereo not given)	inactive
Cc1ccc2occ(CC(=O)N(Cc3ccc(Cl)cc3)C3CCS(=O)(=O)C3)c2c1 (stereo not given)	inconclusive: 39.8 µM [inhibitor, partial curve, poor fit]
O=C(NCCCN1CCOCC1)c1ccc(CSc2ccc(Cl)cc2)cc1	inconclusive: 13.4 µM [inhibitor, partial curve, poor fit]
O=S(=O)(Nc1cc(F)ccc1F)c1ccc2[nH]c3c(c2c1)CCCC3	inconclusive: 39.8 µM [inhibitor, partial curve, poor fit]
O=C1OCCOC2CCCc3oc(C4=CCCCC4)c1c32 (stereo not given)	inactive
COc1ccc(-c2cc(C(F)(F)F)nc(S(C)(=O)=O)n2)cc1	inconclusive: 39.8 µM [inhibitor, single point]
O=C(Nc1ccc(Cl)cn1)c1ccc([N+](=O)[O-])o1	inconclusive: 33.6 µM [inhibitor, single point]
COc1ccc(-n2ccnc(NCc3ccccc3OC)c2=O)cc1	inactive

SMILES	Potency
COc1cc(-c2cc(NC(C)=O)c3ncc(-c4ccccc4)n3c2)cc(OC)c1OC	inactive
O=C(Cn1nnc(-c2cc(Cl)ccc2-n2cnnn2)n1)N1CCCc2ccccc21	inactive
Cc1ccc(S(=O)(=O)Nc2cccc3ncccc23)s1	inconclusive: 3.98 µM [inhibitor, full curve, poor fit]
CC(C)=CCc1c(O)cc2oc3c(CC=C(C)C)c(O)c(O)c(CC=C(C)C)c3c(=O)c2c1O	inconclusive: 23.8 µM [inhibitor, partial curve, poor fit]
N#CC(c1ccnc(NCCc2cccnc2)n1)c1nc2ccccc2s1 (stereo not given)	inconclusive: 30.6 µM [inhibitor, single point]
O=C(NCCn1cc(SCc2ccccc2Cl)c2ccccc21)c1cccs1	inconclusive: 39.8 µM [inhibitor, single point]
Cc1cc(C)cc(NC(=O)Cn2cc(S(=O)(=O)NC(C)(C)C)c(S(=O)(=O)NC(C)(C)C)c2)c1	inconclusive: 39.8 µM [inhibitor, single point]
O=C1N(Cc2ccccc2)c2ccc(Cl)cc2C1(O)c1c[nH]c2ccccc12 (stereo not given)	inconclusive: 28.2 µM [inhibitor, single point]
O=C(CSc1nnc(SCc2ccccc2)s1)NNC(=S)Nc1ccccc1	inactive
CC1CCCCN1S(=O)(=O)c1ccc(C(=O)Nc2nnc(-c3ccncc3)o2)cc1 (stereo not given)	inconclusive: 37.7 µM [inhibitor, single point]
Cc1ccc(C)c(N2CCN(C(=O)Cn3ncc4c(=O)oc5ccccc5c43)CC2)c1	inactive
CN(C)CCNC(=O)COc1ccc(C23CC4CC(CC(C4)C2)C3)cc1	inactive
CCCC(=O)NC(c1ccc(OC)c(OC)c1)c1cc(Cl)c2cccnc2c1O (stereo not given)	inconclusive: 17.8 µM [inhibitor, partial curve, poor fit]
O=C(O)c1cc(-c2ccc(Cl)cc2)n(-c2cccc(Cl)c2)n1	inactive
CN(CC(=O)NC1CC1)S(=O)(=O)c1ccc(F)cc1	inactive
Fc1cccc(Nc2c3c(nc4ccccc24)CCC3)c1	inconclusive: 15.8 µM [inhibitor, partial curve, poor fit]
COc1ccc(N2CCN(C(=O)CN3C(=O)NC(c4ccc(OC)cc4)(c4ccc(OC)cc4)C3=O)CC2)cc1	inactive
O=C(CNc1ccc(C(F)(F)F)cc1)Nc1cccc(S(=O)(=O)N2CCCC2)c1	inactive
Fc1ccc(Cn2nnnc2CN2CCN(C3CCCC3)CC2)cc1	inconclusive: 39.8 µM [inhibitor, single point]
C=CC[C@@H](CC(=O)N(CCO)Cc1ccccc1)C(=O)NC[C@@H](OC(=O)[C@@H](CC=C)Cc1ccc(F)cc1)c1ccccc1	inconclusive: 39.8 µM [inhibitor, single point]
COc1ccc(S(=O)(=O)n2nc(-c3ccco3)nc2NCc2ccc(N(C)C)cc2)cc1	inactive
Cc1nn(C)c(C)c1NS(=O)(=O)c1ccc(Cl)cc1	inactive
O=C1/C(=C\c2ccc([N+](=O)[O-])cc2)CS(=O)(=O)C/C1=C/c1ccc([N+](=O)[O-])cc1	inconclusive: 2.67 µM [inhibitor, full curve, poor fit]
CC(C)(C)c1ccc(C(=O)NC(=S)NNC(=O)c2cccs2)cc1	inactive

SMILES	Potency
CC(OC(=O)CCCN=C1NS(=O)(=O)c2ccccc21)C(=O)Nc1ccc(F)c(F)c1F (stereo not given)	inactive
Cc1ccc(C)c(NC(=O)CSc2nnc(CCNC(=O)OC(C)(C)C)o2)c1	inactive
CCOC(=O)c1c(NC(=O)COC(=O)c2cccnc2OCC)sc(C(=O)N(CC)CC)c1C	inconclusive: 28.2 µM [inhibitor, single point]
CCOC(=O)c1c(C)c(-c2ccccc2)n(CC(=O)NCc2cccc(OC)c2)c1C	inactive
Cc1ccc(-c2nnc(-c3ccc(NC(=O)Cc4cccs4)cc3)o2)cc1	inconclusive: 10 µM [inhibitor, partial curve]
O=C(Cn1c(=O)n(Cc2ccc(Cl)cc2)c(=O)c2cccnc21)Nc1ccccc1C(F)(F)F	inactive
CN(Cc1ccc(F)cc1)S(=O)(=O)c1nnc(NC(=O)c2ccccc2Br)s1	inactive
O=C1CSC(=S)N1N=Cc1ccc(Cl)s1	inactive
O=C(Nc1ccncc1)Nc1ccccn1	inactive
CC(=O)Nc1cccc(-c2ccnc3c2CC(C)(C(=O)Nc2ccc(F)c(Cl)c2)O3)c1 (stereo not given)	inconclusive: 31.6 µM [inhibitor, single point]
COc1ccc(-c2cnn3c4c(c(C)nc23)CCN4C(C)C)cc1OC	inactive
COc1ccc(OC2C(=O)N(Cc3ccc4c(c3)OCO4)C2c2sccc2C)cc1 (stereo not given)	inconclusive: 39.8 µM [inhibitor, single point]
CC1(C(=O)NCc2cccc(C(F)(F)F)c2)CCN1Cc1ccc2ccccc2c1 (stereo not given)	inconclusive: 25.1 µM [inhibitor, single point]
Cc1ccc(NC(=O)c2ccccc2NS(=O)(=O)c2ccc(Cl)s2)cc1S(=O)(=O)N1CCOCC1	inconclusive: 22.4 µM [inhibitor, single point]
Fc1ccc(-n2c(Cc3ccccc3)nnc2SCc2nc(-c3ccc(Cl)cc3)no2)cc1	inconclusive: 39.8 µM [inhibitor, single point]
O=C(NCc1cccn1Cc1ccccc1)Nc1ccc(Br)cc1F	inactive
O=C(/C=C/c1ccc(OC2CSC2)cc1)c1ccc(Cl)cc1	inactive
CC(OC(=O)c1c2c(nc3ccccc13)/C(=C\c1ccc3c(c1)OCO3)CCC2)C(=O)Nc1ccc(S(N)(=O)=O)cc1 (stereo not given)	inactive
O=C(Oc1ccccc1)c1cccc(C(=O)Oc2ccccc2)c1	inconclusive: 50.1 µM [inhibitor, partial curve]
CCn1c(SCC(=O)Nc2cccc(F)c2)nnc1-c1cc2cc(Br)ccc2o1	inconclusive: 3.55 µM [inhibitor, single point]
CCOC(=O)c1sc(NC(=O)CCCCCN2C(=O)c3cccc4cccc(c34)C2=O)nc1C	inconclusive: 4.47 µM [inhibitor, full curve]
CN1CCN(C(=O)Cn2c(-c3cccs3)cc3cc(Cl)ccc32)CC1	inconclusive: 14.1 µM [inhibitor, partial curve, poor fit]

From PubChem BioAssay AID1745845 (National Center for Advancing Translational Sciences (NCATS), 2022)
